Laboratory results published in PubChem BioAssay AID686978 (National Center for Advancing Translational Sciences (NCATS), 2013).
Screen size: about 420,000 compounds; about 64,000 (15%) were called active. The inconclusive results got no clear call from the source; some entries with a clear call stand among them for comparison. The call rests on the fitted dose curve; in most records, active means well fitted inhibition curve with a large enough effect; inconclusive means small, poorly fitted or top-dose-only effect; inactive means flat fitted curve, though single readings scatter. Potencies of inconclusive entries are left out as doubtful fits.
Potency means the concentration at half of the fitted maximal effect; tags describe the fitted curve by direction and shape.

Test: qHTS for Inhibitors of human tyrosyl-DNA phosphodiesterase 1 (TDP1): qHTS in cells in absence of CPT; further: nearly all actives have a fitted effect of over 55% in size
Conditions: DT40 Tdp1-/- hTDP1 cells, no CPT, ATP luminescence, 48 h; series mostly up to 46.2 µM
How it was run: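 A cellular qHTS used chicken DT40 cells lacking endogenous Tdp1 but carrying stably transfected human TDP1. Compounds were applied without camptothecin, and cell growth kinetics were judged by ATP-dependent luminescence after ≥48 hr.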
For `CSc1ncc(CN2CCc3c([nH]c4ccccc34)C2C(C)(C)C)cn1` (stereo not given), the Potency was active: 23.1 µM. With `CCCCN1C(=O)CN(C2CCCCCC2)C(=O)C1c1ccc(OCCC)c(OC)c1` (stereo not given) the Potency was inconclusive [inhibitor, single point]. With `CC1CN(S(=O)(=O)c2cc(C(=O)N(CCc3ccccc3)Cc3ccccc3)ccc2Cl)CC(C)O1` (stereo not given) the Potency was active: 10.3 µM. With `c1ccc(CN2CCN(Cc3c[nH]c4ccccc34)CC2)cc1` the Potency was active: 10.3 µM. For `CCOc1cccc(CNc2nnnn2C)c1`, the Potency was “inactive”. In the case of `O=C(c1csnn1)N1CCC2(CCCN(c3cccc(-c4ccccc4)c3)C2)CC1`, the Potency is reported as inconclusive [inhibitor, single point]. For `CCOc1ccc(C2CC(c3cccc(OC)c3OC)n3nnnc3N2)cc1Cl` (stereo not given), the Potency was inconclusive [inhibitor, single point]. With `Cc1[nH]n(C(N)=S)c(=O)c1N=Nc1ccccc1C(F)(F)F` the Potency was active: 14.6 µM. For `O=C(NCCc1ccc(F)cc1)c1cccc(NC(=O)c2ccccc2)c1`, the Potency was inconclusive [inhibitor, partial curve]. With `Cc1ccc(CN2C(=O)c3ccccc3NC2c2ccccn2)cc1` (stereo not given) the Potency was inconclusive [inhibitor, single point]. In the case of `CCC(C)[C@H]1CNCCN1CC1(c2ccccc2)CC1` (stereo not given in full), the Potency is reported as active: 18.4 µM. With `CC(=O)C1=CCC(c2ccc(C)cc2)N(S(=O)(=O)c2ccc(C)cc2)C1` (stereo not given) the Potency was inconclusive [inhibitor, single point]. For `CC1Cc2cc(S(=O)(=O)N3CCC(C(=O)Nc4ccccn4)CC3)ccc2N1C(=O)C1CCC1` (stereo not given), the Potency was active: 20.6 µM. In the case of `Cn1c(=O)c2cc(NC(=S)NC3CCCCC3)ccc2n1Cc1cccc(C(F)(F)F)c1`, the Potency is reported as inconclusive [inhibitor, single point]. For `Cc1nc2c3ccccc3nc(NNC(=O)CCC(=O)NCCC(C)C)n2n1`, the Potency was “inactive”. For `COc1ccc(OC)c(NC(=O)CSC2=Nc3ccccc3C3=NC(CC(=O)NCc4ccc5c(c4)OCO5)C(=O)N23)c1` (stereo not given), the Potency was active: 23.1 µM. For `O=C(C1=C[C@H](c2coc3ccccc3c2=O)C[C@H](OCCCCO)O1)N1CCN(Cc2ccccc2)CC1`, the Potency was inconclusive [inhibitor, single point]. In the case of `O=C(CSCc1ccc(F)cc1)N1CCN(c2ccc(F)cc2)CC1`, the Potency is reported as active: 12.6 µM. With `Cc1ccc(S(=O)(=O)N(C)C)cc1NC(=O)CSc1ccc2c(c1)OCCO2` the Potency was “inactive”. In the case of `COCCCNc1nc(N)c([N+](=O)[O-])c(Nc2cc(OC)ccc2OC)n1`, the Potency is reported as inconclusive [inhibitor, partial curve].
